109 compounds from PubChem BioAssay AID1240 (Sanford-Burnham Center for Chemical Genomics, 2008) can be followed below.

Among all 50,000 compounds or so, about 800 (1.6%) showed an effect of 50% or more. This is one part of the list.

For the assay, the target named is Bcl-2-like protein 10 (Homo sapiens) (UniProt Q9HD36). In words: Phenotype converters, Bcl-B/TR3 peptide binding displacement, primary biochemical FP (AID 1240).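 Note: 0% = Bcl-B with tracer peptide and DMSO and 100% = tracer peptide lacking Bcl-B.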 The note with it: GST-Bcl-B / FITC-TR3 peptide fluorescence polarization; stronger effect = higher value; compound at 3.75 mg/L.
Chain of UniProt Q9HD36 (Q9HD36 whole entry, looked up): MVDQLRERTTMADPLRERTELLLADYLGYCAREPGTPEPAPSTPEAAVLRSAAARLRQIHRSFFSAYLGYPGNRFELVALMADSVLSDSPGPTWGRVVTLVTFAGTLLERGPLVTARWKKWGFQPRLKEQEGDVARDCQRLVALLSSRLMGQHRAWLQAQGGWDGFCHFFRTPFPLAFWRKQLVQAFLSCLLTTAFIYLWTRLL
As to `CC(C)(C)CC(C)(C)NC(=O)CSc1nc2ccccc2o1`, the displacement turned out to be 3.4%.
Take `COc1ccc2oc(=O)c(C(N)=O)cc2c1`: the displacement was 12.8%.
For `Cc1nn(CC(=O)Nc2ccccc2)c(=O)c2ccccc12` the value was -5.1%.
For `CNC(=O)c1c(-c2ccccc2Cl)noc1C` the value was -4.1%.
As for `CC(=O)c1cccc(NC(=O)CN2CCOCC2)c1`, the displacement came out at 12.1%.
For the compound `CCC(=O)Oc1ccc2c(C)cc(=O)oc2c1C`, the displacement is -7.8%.
For `O=C(/C=C/c1cccc2ccccc12)c1ccc(NC(=O)c2cccs2)cc1` the value was -2.2%; for `C=CCOc1ccc(/C=C2\SC(=Nc3ccccc3)NC2=O)cc1OC`, -4.9%.
In the case of `CCCCCC(=O)NNS(=O)(=O)c1ccc(Cl)cc1`, the displacement is -7.8%.
For `O=C(N/N=C/C=C/c1ccccc1[N+](=O)[O-])c1cc(-c2ccccc2)n[nH]1` the value was 28%.
For `Cc1ccc(/C(O)=C2\C(=O)C(=O)N(c3ccc(O)cc3)C2c2ccc(F)cc2)cc1` (centres undefined) the value was 11.1%.
On to `COC(=O)CN(c1ccc(C)cc1)S(=O)(=O)c1ccc(SC)cc1`, for which the displacement worked out at 10.9%.
For `Cc1onc(-c2ccccc2Cl)c1C(=O)N1CCc2ccccc2C1` the value was 8%; for `Cc1ccc(S(=O)(=O)c2ccc(Sc3ccc(Cl)cc3)cc2)cc1`, 4.7%.
Turning to `O=C(NCCN1CCNCC1)C(=O)Nc1ccc(Br)cc1`, the displacement worked out at 10.9%.
For `Cc1c(Cl)cccc1NC(=O)/C(C#N)=C/c1cccc(O)c1` the value was -12.3%; for `O=C(O)c1ccc(N2C(=O)C3C4c5ccccc5C(c5ccccc54)C3C2=O)cc1Cl` (centres undefined), 4.7%.
For `COc1cccc(-n2c(/C=C/c3c(C)n(C)c4ccccc34)nc3ccccc3c2=O)c1` the value was 2.4%; for `CCOc1c(Br)cc(C2C3=C(CC(C)(C)CC3=O)OC3=C2C(=O)CC(C)(C)C3)cc1OC`, -4.2%.
For `Clc1ccc(C=NN2CCN(Cc3ccccc3)CC2)c(Cl)c1` the value was 18.6%; for `COc1ccccc1CNC(=O)CN(c1ccc(Oc2ccccc2)cc1)S(C)(=O)=O`, -6.1%.
In the case of `Cc1ccc2c(c1)NC(c1ccc(F)cc1)C1=C(CC(C)(C)CC1=O)N2` (centres undefined), the displacement was 17.8%.
For `Cc1nnc(Nc2ccc3c(c2)nc(C)n3Cc2ccccc2)c2ccccc12` the value was 3.5%.
For `O=C1/C(=C/C(Cl)=C/c2ccc([N+](=O)[O-])cc2)SC(=S)N1c1ccc(O)cc1` the value was 15.4%; for `CNC(=O)c1ccc(N(C)S(=O)(=O)c2ccccc2)cc1`, 3%; for `O=C(c1ccc(N(Cc2ccc([N+](=O)[O-])cc2)Cc2ccc([N+](=O)[O-])cc2)cc1)C(F)(F)F`, -4.1%.
For `Cc1nc(N)nc(-c2ccccc2O)n1` the value was 3%; for `CCCCCCCNC1CC(=O)N(c2ccc(Br)cc2)C1=O` (centres undefined), 1.7%.
As to `CC(C)(C)c1ccc(S(=O)(=O)Nc2nccs2)cc1`, the displacement was found to be 9.4%.
Turning to `CC(C)(C)NCCCCOc1cc(Cl)ccc1Cl`, the displacement was found to be 5.8%.
As to `Cc1cc(Cl)ccc1NC(=O)C(=O)N/N=C/c1ccccc1F`, the displacement amounted to 4.5%.
For `CN(C)/C=C1\N=C(c2ccccc2F)OC1=O` the value was -3.9%.
For `O=C(/C=C/c1ccc(Cl)cc1)Nc1ccc(Cl)cn1` the value was 8.5%; for `COc1ccc(CCNC(=O)c2ccc(Cl)cc2)cc1OC`, -8.9%.
As to `Cc1cc(C)cc(CC(C(=O)Nc2ccc(I)cc2)C(C)C(=O)O)c1` (centres undefined), the displacement was 8.7%.
For `CN(C)CCNC(=O)c1ccc(Br)cc1` the value was 4.9%.
For `O=C(Nc1nc2ccc(Br)cc2s1)c1cccs1` the value was -3.7%; for `CCOC(=O)c1csc(NC(=O)c2ccc(S(=O)(=O)N3CCCC3)cc2)n1`, -6.9%; for `Cc1ccc(N=CC2=C(O)CC(C)(C)CC2=O)nc1`, -3.3%.
For `Cc1cc(C)nc(SCC(=O)Nc2nncs2)n1` the value was -4.7%.
For `CC(=O)NN1C(=O)/C(=C\c2ccc(I)o2)SC1=S`, the displacement is -38.1%.
For `COC(=O)c1c(C)oc2ccc(OC(=O)c3ccc(OC)c(OC)c3)cc12` the value was 10.8%.
Consider `COC(=O)CN(c1cc(C)ccc1OC)S(=O)(=O)c1ccccc1`, for which the displacement came to 12.7%.
For `OC(COc1ccc(Cl)cc1)CSc1ncn[nH]1` (centres undefined) the value was -2.1%.
Regarding `COc1ccc(N(CC(=O)NCc2ccncc2)S(=O)(=O)c2ccc(C)cc2)cc1`, the displacement came out at 7.5%.
As to `COc1ccc(CN2CCN(S(=O)(=O)c3ccccc3)CC2)cc1OC`, the displacement is -10.4%.
For `CCOC(=O)C1=C(C)N=c2s/c(=C\C=C\c3ccco3)c(=O)n2C1c1ccc(OC)cc1` (centres undefined) the value was 63.9%; for `Cc1ccc(-c2ccc(C(=O)Nc3cccnc3)o2)cc1Cl`, 5.6%; for `COc1ccc(CCNC(=O)C(=O)Nc2cccc(C(F)(F)F)c2)cc1`, -7.6%.
For `COc1ccc(C2/C(=C(/O)c3ccccc3)C(=O)C(=O)N2c2nc3ccccc3s2)cc1` (centres undefined) the value was -9.1%; for `O=C(c1ccc([N+](=O)[O-])cc1)N1CCN(Cc2ccccc2Cl)CC1`, -12.7%; for `CC(C)(C)NC(=O)c1nn2c(c1Br)NC(c1cccs1)CC2C(F)(F)F` (centres undefined), 3.6%.
`COc1ccc(C(=O)N2CCN=C2c2ccccc2)cc1OC`: the displacement is 11.9%.
For `COc1ccccc1/C=C1\SC(=S)N(Nc2nc(C)cc(C)n2)C1=O` the value was -5.6%.
In the case of `COc1ccccc1C/C(N)=N/OC(=O)c1ccc(Cl)cc1`, the displacement turned out to be 13.6%.
For `CSc1ccc(/C=N/Nc2nc(Nc3ccccc3)nc(N3CCOCC3)n2)cc1` the value was 1%.
For `O=C(O)CCCCCN1C(=O)C(=O)/C(=C(/O)c2ccc([N+](=O)[O-])cc2)C1c1ccc(Cl)cc1` (centres undefined) the value was -2.6%; for `CC(=O)Oc1c(/C=C(\C#N)C(N)=O)[nH]c2ccccc12`, 1.8%.
Consider `O=[N+]([O-])c1cc(-c2ccn[nH]2)c(Cl)cc1Cl`, for which the displacement came out at 4.5%.
For `COC(=O)CN1C(=O)/C(=C\c2c(F)cccc2Cl)SC1=S` the value was -1.3%.
Regarding `Cc1ccc(C(=O)NC(=S)Nc2ccc(N3CCCCC3)cc2)cc1`, the displacement came to 0.6%.
For `CN1C(=O)/C(=C2\SC(=S)N(c3cccc(Cl)c3)C2=O)c2ccccc21` the value was 15.9%; for `CC(=O)NC1=NC(=O)/C(=C\c2ccc(-c3cccc([N+](=O)[O-])c3)o2)S1`, -21.3%.
For `CCOC(=O)c1c(C)nc(-c2ccccc2)nc1NC(=O)c1ccccc1` the value was 6.3%; for `O=C(NCC1CCCO1)C(=O)Nc1ccc(F)cc1` (centres undefined), 9%; for `CCOC(=O)c1ccc(NC(=O)/C(=C\c2cccc([N+](=O)[O-])c2)NC(=O)c2ccccc2)cc1`, 12%.
For `O=C(NC(Nc1ccc(F)cc1)C(Cl)(Cl)Cl)c1ccco1` (centres undefined) the value was -9.1%.
With `O=C(NCc1ccco1)C(=O)N1CCCC1`, the displacement worked out at 11.9%.
For `CC(=O)Nc1ccc(NC(=O)COc2ccc(Br)c(C)c2)cc1` the value was 1.1%; for `COc1cccc(C2C(C(=O)Nc3ccccc3)=C(C)N=c3s/c(=C/c4ccccc4OC)c(=O)n32)c1` (centres undefined), 12.1%.
For `N#C/C(=C/c1cccc(Cl)c1)c1nc(-c2ccc(Cl)cc2)cs1` the value was -4.7%; for `O=C(Nc1ccccc1)N1CCN(Cc2ccc3c(c2)OCO3)CC1`, -7.4%.
For the compound `O=C(NC1CCCCCC1)c1ccc([N+](=O)[O-])o1`, the displacement is -9.7%.
For `COc1ccc(N2C(=O)/C(=C\c3cccc(OC(=O)c4ccco4)c3)SC2=S)cc1` the value was 5.7%; for `O=C(Nc1c(Cl)cccc1Cl)c1ccc(F)cc1`, -2.7%; for `O=C(Nc1ccc(Cl)c(Cl)c1)Nc1nnc(CSCc2ccccc2)s1`, 2.9%.
In the case of `COc1cc(NC(=O)c2cc(Cl)ccc2Cl)ccc1NC(=O)c1ccco1`, the displacement is 11.2%.
For `C=CCN1C(=O)/C(=C\c2ccc(OC)cc2)SC1=Nc1ccccc1` the value was 14.7%; for `COc1ccc(OCC(=O)N/N=C/c2ccc(C)cc2)cc1`, -3.8%.
For `CC(C)C12CN(C(=O)c3ccccc3)CC(C(C)C)(CN(C(=O)c3ccccc3)C1)C2=O` the value was 7.6%; for `S=C(NCCSc1ccccn1)Nc1ccccc1`, -8.2%; for `CCOC(=O)C1=C(O)/C(=C/c2ccc(OC)cc2OC)SC1=Nc1ccccc1`, -62%.
`O=C(CNC(=O)/C(=C\c1ccccc1F)NC(=O)c1ccccc1)OCc1ccccc1`: the displacement was -3.5%.
For the compound `N#CCC(=O)NNCc1cc(-c2ccccc2)n(-c2ccccc2)c1-c1ccccc1`, the displacement was 32.7%.
`Cc1ccc(C2(c3ccc(C)cc3)C(=O)NCc3ccccc32)cc1`: the displacement was -1.2%.
In the case of `S=c1[nH]nc(-c2ccccc2)c2ccccc12`, the displacement was 7.9%.
For the compound `O=C(Nc1ccccc1C(=O)O)c1ccc2c(c1)C(=O)N(c1cccc([N+](=O)[O-])c1)C2=O`, the displacement is 20%.
For `COc1ccc(CC(=O)O/N=C(\N)c2ccc(Br)cc2)cc1OC` the value was 6.5%.
For `COc1ccc(OC)c(NC2=NC3(CCCCC3)N=C(N)N2)c1` the value was -0.5%; for `O=C(NCCN1CCCCC1)/C(=N\O)c1ccccn1`, -1.8%.
For the compound `COc1ccc(C2OCC3(CO2)SC2=NCN(C)CN2C3=O)cc1OC` (centres undefined), the displacement was determined as 11.9%.
Turning to `O=C(c1ccccc1)N1CCN=C1c1ccccc1`, the displacement was found to be 8.7%.
On to `CC(Oc1ccccc1)C(=O)Nc1ccc(Cl)c(C(N)=O)c1` (centres undefined), for which the displacement stood at 3.2%.
For `C/C(=N\NC(=O)CCN1CCN(C)CC1)c1ccc(O)cc1` the value was -0.7%; for `CC(C)c1ccc(-c2cc(C(=O)O)c3ccccc3n2)cc1`, -0.7%; for `COc1ccc(C(=O)CC(Nc2ccc([N+](=O)[O-])cc2)c2ccc(Cl)cc2)cc1` (centres undefined), -4.2%.
On to `COc1c(Br)cc(Br)cc1/C=N\NC(=O)c1ccc([N+](=O)[O-])cc1`, for which the displacement came out at 7.8%.
In the case of `COc1cccc(N2C(=O)C(=O)/C(=C(\O)c3ccccc3)C2c2ccccc2Cl)c1` (centres undefined), the displacement was -2.1%.
For `COc1ccc(Cl)cc1N(CC(=O)N1CCCCC1)S(=O)(=O)c1ccc(C)c([N+](=O)[O-])c1` the value was 2.3%.
For `O=C(c1ccc(F)cc1F)N1CCN(c2cc(N3CCCCC3)c(F)cc2[N+](=O)[O-])CC1` the value was -8%; for `COc1cc(/C=C2/C(=O)NC(=O)N(c3ccccc3C)C2=O)ccc1OCCOc1ccccc1`, 69.3%.
For `O=C(Cc1ccc(Br)cc1)Nc1ccc(Cl)c([N+](=O)[O-])c1` the value was 11.1%.
As for `Cn1c(O)c(N=NC(N)=O)c2ccccc21`, the displacement was found to be 6.6%.
For the compound `CN1C(=O)/C(=C\c2ccc(OCCOc3ccc(Br)cc3)cc2)SC1=S`, the displacement was 16.9%.
Take `Cc1cccc(C(=O)N(C(=O)c2cccc(C)c2)c2ncccn2)c1`: the displacement came out at 0.4%.
For `CCOc1ccc(C(=O)Nc2cccc(NC(=O)c3cccc4ccccc34)c2)cc1`, the displacement worked out at 8.6%.
For `C=CCn1c(C)nc2c(cnn2-c2ccccc2)c1=O` the value was -0.7%; for `O=C(CSc1ncn[nH]1)Nc1ccc(Cl)cc1`, -4.9%; for `O=C(NC(Nc1ccccc1F)C(=O)c1ccccc1)c1ccco1` (centres undefined), 4.5%.
